Test results published in the supplement of paper PMC3334620.
Whole data set: some 33,000 sequences, median “E-score (-0.5 to 0.5)” near -0.035, cut for the highest 2% near 0.34. The list shows a part of the results.

molecular target: T1, Mot3 (UniProt P54785); experiment: PBM E-score (8-mer binding enrichment) (E-score (-0.5 to 0.5)); higher = stronger / more preferred TF binding; most listed sequences are background and not binding sites; conditions: protein concentration: 200 nM; construct: GST-full length
T1 sequence: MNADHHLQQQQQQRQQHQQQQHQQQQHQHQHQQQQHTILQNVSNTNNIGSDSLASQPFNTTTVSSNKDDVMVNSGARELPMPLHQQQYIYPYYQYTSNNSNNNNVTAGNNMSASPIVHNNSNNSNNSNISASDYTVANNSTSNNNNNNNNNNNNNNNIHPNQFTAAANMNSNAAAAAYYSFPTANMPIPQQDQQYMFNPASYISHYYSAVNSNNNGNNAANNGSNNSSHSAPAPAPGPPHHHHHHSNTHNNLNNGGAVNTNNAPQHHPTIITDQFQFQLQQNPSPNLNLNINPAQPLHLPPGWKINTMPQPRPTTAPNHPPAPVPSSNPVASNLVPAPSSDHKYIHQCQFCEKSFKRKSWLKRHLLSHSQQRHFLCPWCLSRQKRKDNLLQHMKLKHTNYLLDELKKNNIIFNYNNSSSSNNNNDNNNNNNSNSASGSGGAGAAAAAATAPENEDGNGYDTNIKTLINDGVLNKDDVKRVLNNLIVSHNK
Protocol: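 Universal 'all 10-mer' protein binding microarrays (Agilent AMADID 015681) probed with GST-tagged S. cerevisiae TFs (full-length or DBD) made by in vitro transcription/translation (PURExpress), about 100-200 nM. Bound TF was detected with fluorescent anti-GST. Each ungapped 8-mer (which stands for itself and its reverse complement) is scored by the PBM enrichment score (E-score), a modified Wilcoxon-Mann-Whitney statistic from -0.5 to +0.5, computed with the Universal PBM Analysis Suite. Scale: above 0.35 generally sequence-specific binding.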

Point of comparison: CTACCAGC, “PBM E-score” value -0.133. Against it:
- CCCTGTAG — higher, -0.00088
- AGACGTCC — higher, 0.0226
- ATCTGAAA — higher, -0.0689
- CACTCGCA — higher, -0.0906
- AAAACTCT — higher, -0.0469
- ATAGGCCA — higher, -0.0678
- CCCACAAC — lower, -0.208
- CGGTGGGA — lower, -0.217
- CTAATGGC — lower, -0.154
- AGCGTGCA — higher, 0.092
- ATTCACTG — higher, 0.0165
- ACATAGTG — higher, 0.243
- GACTAACC — higher, 0.00019
- GCTGCTTA — higher, -0.0691
- CCGTTTTA — higher, 0.101
- CCAATTGG — lower, -0.217
- AGGTCCTG — lower, -0.216
- AAACCACA — higher, 0.189
- AGAGCTTC — higher, -0.0602
- ACAAACCG — higher, 0.00705
- GACAAGTA — higher, 0.0316
- CGCTCGAA — higher, -0.042
- TAGATAAA — higher, -0.0492
- CACTCAAC — higher, 0.0132
- GGTGGATA — lower, -0.193
- ACGAAACG — higher, 0.0289
- CTTCCTCA — higher, -0.0634
- AATTGATA — higher, 0.0378
- ATGACACA — higher, 0.313
- AGCGGGAA — higher, -0.114
- CCCCTCTC — lower, -0.175
- ATGATCGC — higher, -0.0309
- CCAGAGCA — higher, -0.12
- GATTAGGC — higher, 0.233
- ACGATTAC — higher, 0.286
- CATGGCCA — lower, -0.229
- CGGATACA — higher, 0.098
- AATTGACG — higher, 0.0363
- CCTTAACC — higher, 0.0429
- CCGCATCA — lower, -0.176
- GTTACGCA — higher, 0.207
- CAGTGGAA — lower, -0.222
- CAGTACCA — lower, -0.247
- AGATCCTG — higher, -0.0763
- CTAAGGTC — higher, -0.126
- GGACGAGA — higher, -0.131
- CATGGGCG — lower, -0.212
- ATTCTATA — higher, -0.0583
- TCCTATCA — higher, 0.0625
- ATACGCTG — higher, 0.0535
- ACAAAATG — higher, 0.23
- GGTAGCGA — lower, -0.263
- CTCGTTCC — higher, 0.111
- CTACAAGC — higher, 0.238
- CAGTTAGA — lower, -0.195
- ATTCGTAA — higher, 0.183
- GATACCGC — higher, -0.091
- ATCATGTA — higher, 0.392
- CGTCACAA — higher, 0.0391
- CGAGACCA — lower, -0.163
- ATGTCATG — higher, 0.277
- TATACACA — higher, 0.364
- GCAAGCAC — higher, 0.164
- AAGAACTC — higher, 0.214
- GCCTGAGA — higher, 0.0257
- CTAAGCCC — lower, -0.272
- GATGTCGA — higher, 0.215
- CGATCGTA — higher, -0.102
- CTGCCCTA — lower, -0.196
- AAGAATGG — lower, -0.156
- TAGGAGCA — higher, 0.0656
- AATATTTC — higher, 0.0305
- AGTTTGCG — higher, -0.0945
- AACTGGCG — higher, -0.0219
- CGAGGGAC — lower, -0.299
- CTACCTAG — higher, 0.0595
- AAGGTAAT — higher, 0.34
- GTGATTAA — higher, 0.11
- GATTCTAC — higher, 0.0482
- ACGGAATC — lower, -0.165
- AAAAGTCG — higher, -0.0841
- GCACGACA — higher, 0.217
- TCGAGAGA — lower, -0.237
- CGAACTCA — higher, -0.0943
- ATACTCCA — higher, -0.0549
- ACCCTGTG — higher, 0.0798
- CCCGGTTA — lower, -0.245
- GCAGCCAC — lower, -0.276
- GCGGTTCC — higher, 0.0435
- AAACGCGT — higher, 0.235
- AACTCCAT — lower, -0.147
- CAATCTCA — higher, -0.0375
- CGGCCGCA — lower, -0.243
- AAACCAGT — higher, -0.0222
- CCGTGGGC — lower, -0.265
- AGCCAGTC — higher, -0.089
- AGAAGCGG — lower, -0.205
- ACTAAGCT — higher, -0.0746
- AGACTGCC — lower, -0.196
- CACCACCG — lower, -0.238
- AGTATGAA — higher, 0.0216
- AGTTTGAG — lower, -0.163
- ACTACAGG — higher, 0.194
- CAGAGGGC — higher, 0.0242
- ACTCGGAC — lower, -0.188
- ATGACGAA — higher, 0.154
- TAGCTAGA — higher, -0.0751
- AAGTACGG — lower, -0.166
- AACCCGGG — higher, -0.083
- GAGGGTGA — lower, -0.208
- AAGTCCCC — lower, -0.285
- CATAGTAG — higher, 0.0366
- CTATGAGC — higher, -0.132
- CAAACTTG — higher, 0.0232
- CAATGCTC — lower, -0.168
- ATTGTAAG — higher, 0.0549
- CGGCACCG — higher, -0.0283
- AATGCCGC — higher, -0.0597
- CACGACTC — higher, 0.145
- GAACAACC — higher, 0.0492
- GGCCGTGA — lower, -0.166
- ATAGGGGA — lower, -0.199
- GCAGTCGC — lower, -0.162
- CTTATAGC — higher, 0.0809
- CATCCAAC — higher, -0.11
- AGGTACCC — higher, 0.361
- ATATGCGC — higher, 0.0367
- ATATCATA — higher, 0.121
- GACGTTGC — higher, -0.065
- ATGAGGCA — higher, 0.364
- AAACGATG — higher, -0.0398
- ATATGGGC — higher, -0.00015
- TAGCTGCA — higher, -0.0762
- ACACGGTA — higher, 0.34
- ACAACGGT — higher, 0.0418
- AATCCTGC — higher, 0.093
- TACAGATA — higher, 0.104
- AAAGAGAT — higher, -0.0413
- CCACCGAC — higher, -0.125
- CTTGCTTA — higher, -0.117
- ATCCACCA — lower, -0.155
- CAAGAGCA — higher, -0.1
- CCACGCAA — higher, 0.126
- GAAGAGCA — lower, -0.172
- ACGCGCAC — higher, 0.0217
- TCAACAAA — higher, 0.167
- AACACATA — higher, 0.312
- GAAAAGGC — higher, 0.228
- TACACCGA — higher, 0.0164
- AACCCGGT — lower, -0.235
- ATATGCCA — lower, -0.135
- AATTGGGG — lower, -0.247
- AAAACGGG — higher, 0.0717
- AGGCAGCC — higher, 0.317
- CGCCTCCC — lower, -0.274
- GAAGCTCA — lower, -0.294
- TAGTTGGA — higher, 0.0664
- TCGGCTAA — higher, -0.0724
- AGACGGTA — higher, -0.052
- AGAATGAA — higher, 0.105
- ACTCGAGT — higher, 0.00487
- CACCCAGC — higher, -0.13
- AACCCGTT — higher, -0.047
- GCTCAGAC — lower, -0.147
- CTCGTTCA — higher, 0.116
- TCAAGTAA — higher, 0.269
- CTTAAATC — higher, 0.0279
- GCGTTCAA — higher, -0.0266
- ATAAGCCG — lower, -0.177
- ACGAAGTG — higher, 0.0261
- ATTTGTGG — higher, -0.0729
